Results published in PubChem BioAssay AID2313 (Broad Institute, 2010).
About 460 (2.1%) of roughly 22,000 compounds were called active. This list was built around the results that the source calls inconclusive (neither active nor inactive); the mix of calls is not that of the screen.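 How the source made its calls: active means mean inhibition across valid replicates above about 65% (limit read from the data); inconclusive means mean under the limit, yet half or more replicates past it; inactive means the rest.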

assay: Shh-driven Gli reporter inhibition – luminescence, Shh-LIGHT2 cells, Gli-luciferase, primary screen (AID 2313); details: 30 h, hits give high values;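 further: pathway switched on by Shh-conditioned medium diluted 1 in 25 in low serum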

Structure (SMILES)	inhibition
Cc1cccc(C=Nc2c(C)n(C)n(-c3ccccc3)c2=O)c1	inconclusive: 44%
Cc1ccc(Cc2nn3c(C(=O)c4cccs4)nn(-c4ccc(Cl)cc4)c3nc2=O)cc1	active: 67.1%
CC(C)NC(=O)N(C)C[C@H]1Oc2ccc(NS(=O)(=O)c3ccccc3)cc2C(=O)N([C@H](C)CO)C[C@H]1C	inactive: -3.67%
CC1(C)CC[C@]2(C(=O)O)CC[C@]3(C)C(=CCC4[C@@]5(C)CC[C@H](O[C@@H]6O[C@H](CO)[C@@H](O)[C@H](O)[C@H]6O)C(C)(C)C5CC[C@]43C)[C@@H]2C1 (stereo not given in full)	active: 89.1%
COc1ccc(NC(=O)Nc2ccc3c(c2)CC(=O)N([C@@H](C)CO)C[C@@H](C)[C@@H](CN(C)Cc2ccc(-c4ccccc4)cc2)O3)cc1	inconclusive: 40.5%
C/C=C(\C)C(=O)O[C@@H]1C(C)=C2[C@H]3OC(=O)[C@](C)(O)[C@]3(O)[C@H](OC(=O)C(C)CC)C[C@@](C)(OC(C)=O)[C@@H]2[C@H]1OC(=O)CCCCCCC (stereo not given in full)	active: 99%
C=C1C(=O)O[C@H]2[C@H]1[C@@H](OC(=O)C(C)CO)C[C@@]1(C)[C@H](O)CCC(=O)[C@H]21 (stereo not given in full)	inconclusive: 56.6%
CCCCC[C@H](O)/C=C/C1=C(C/C=C\CCCC(=O)O)C(=O)CC1	inconclusive: 48.8%
C[C@@H]1CN([C@@H](C)CO)C(=O)Cc2cc(NC(=O)NC3CCCCC3)ccc2O[C@@H]1CN(C)Cc1ccccc1	inactive: -6.41%
Cc1ccc(S(=O)(=O)c2ccc(Cl)cc2)cc1S(=O)(=O)N1CCCC1	inactive: 2.3%
C[C@H]1CN([C@@H](C)CO)C(=O)Cc2cc(NC(=O)Nc3cccc4ccccc34)ccc2O[C@H]1CN(C)Cc1ccccc1	inconclusive: 32.5%
Cc1noc(C)c1S(=O)(=O)Nc1ccc2c(c1)C(=O)N([C@H](C)CO)C[C@H](C)[C@H](CN(C)Cc1ccc3c(c1)OCO3)OCCCC[C@@H](C)O2	inconclusive: 59.9%
C/C=C(/C)C(=O)O[C@H]1[C@H](OC(=O)/C=C/c2ccccc2)[C@@]23C(CC1(C)C)[C@]1(CCC4[C@@]5(C)CC[C@H](O[C@@H]6O[C@H](C(=O)O)[C@@H](O)[C@H](O[C@@H]7O[C@H](CO)[C@H](O)[C@H](O)[C@H]7O[C@@H]7O[C@@H](C)[C@H](O)[C@@H](O)[C@H]7O[C@@H]7OC[C@](O)(CO)[C@H]7O)[C@H]6O[C@@H]6O[C@H](CO)[C@H](O)[C@H](O)[C@H]6O)C(C)(C)C5CC[C@@]4(C)[C@]1(C)C[C@H]2O)O[C@H]3O (stereo not given in full)	active: 87.8%
Cc1ccc(S(=O)(=O)Nc2ccc3c(c2)C(=O)N([C@H](C)CO)C[C@H](C)[C@@H](CN(C)Cc2ccccc2)OCCCC[C@@H](C)O3)cc1	active: 67.6%
C[C@@H]1CN([C@@H](C)CO)C(=O)c2cccc(N(C)C)c2O[C@@H]1CN(C)Cc1ccc2c(c1)OCO2	inactive: -13.9%
CCCN(C)C[C@H]1OCCCC[C@@H](C)Oc2ccc(NC(=O)C3CCCCC3)cc2C(=O)N([C@H](C)CO)C[C@@H]1C	inconclusive: 51.8%
C[C@H](CO)N1C[C@H](C)[C@H](CN(C)Cc2ccc(Cl)c(Cl)c2)Oc2c(NS(=O)(=O)c3ccccc3)cccc2C1=O	active: 82.2%
CCOC(=O)CC1=Nn2c(nnc2-c2cccs2)SC1	inactive: 15.9%

Structure (SMILES)	inhibition
Oc1ccc(CNc2cccc(C(F)(F)F)c2)c2cccnc12	inconclusive: 49.8%
C[C@@H]1CN([C@H](C)CO)C(=O)c2cccc(NC(=O)Nc3ccc4c(c3)OCO4)c2O[C@H]1CN(C)S(=O)(=O)c1ccccc1	inconclusive: 62.8%
Cc1ccc(S(=O)(=O)N(C)C[C@@H]2Oc3c(NS(=O)(=O)c4ccc(F)cc4)cccc3C(=O)N([C@@H](C)CO)C[C@H]2C)cc1	inconclusive: 25.7%
C[C@]12CCC(=O)C=C1CCC1C2[C@@H](O)C[C@@]2(C)C1CC[C@]2(O)C(=O)CO (stereo not given in full)	inconclusive: 59.8%
C[C@H](CO)N1C[C@H](C)[C@H](CN(C)S(=O)(=O)c2ccc(Cl)cc2)Oc2c(NC(=O)C3CC3)cccc2C1=O	active: 97.9%
Cc1cc(Sc2ccc(Cl)cc2)nc(-c2ccccn2)n1	inactive: -8.7%
C[C@@H]1CN([C@H](C)CO)C(=O)c2cccc(NC(=O)C3CC3)c2O[C@@H]1CN(C)Cc1ccc(Cl)c(Cl)c1	active: 78.4%
Cc1noc(C)c1NC(=O)N(C)C[C@@H]1Oc2ccc(NS(=O)(=O)c3c(C)noc3C)cc2CC(=O)N([C@@H](C)CO)C[C@@H]1C	inconclusive: 35.9%
C[C@@H]1CCCCO[C@H](CN(C)S(=O)(=O)c2ccc(F)cc2)[C@@H](C)CN([C@H](C)CO)C(=O)c2cc(NC(=O)c3ccccc3)ccc2O1	inconclusive: 30.2%
C[C@H]1CN([C@@H](C)CO)C(=O)c2cc(NS(=O)(=O)c3ccccc3)ccc2O[C@H]1CN(C)S(=O)(=O)c1cccs1	inconclusive: 64.2%
C[C@H]1CN([C@@H](C)CO)C(=O)Cc2cc(NC(=O)Nc3ccccc3)ccc2O[C@H]1CN(C)C(=O)Nc1ccc2c(c1)OCO2	inconclusive: 45.4%
O=S(=O)(c1cccc2c(I)cccc12)N1CCCNCC1	inconclusive: 35.8%
Cc1csc(NC(=O)CSc2nc(C34CC5CC(CC(C5)C3)C4)ccc2C#N)n1	active: 74.7%
Cc1noc(C)c1S(=O)(=O)Nc1ccc2c(c1)C(=O)N([C@H](C)CO)C[C@H](C)[C@H](CN(C)C(=O)Nc1ccccc1)OCCCC[C@@H](C)O2	inconclusive: 34.6%
COc1ccc(CN(C)C[C@H]2Oc3c(NC(=O)c4ccc(-c5nccs5)cc4)cccc3C(=O)N([C@@H](C)CO)C[C@@H]2C)cc1	inconclusive: 35%
Cc1noc(C)c1NC(=O)Nc1cccc2c1O[C@H](CN(C)S(=O)(=O)c1ccc(F)cc1)[C@@H](C)CN([C@H](C)CO)C2=O	inconclusive: 34.6%
COc1ccc(-n2c(=S)[nH]c3cc(C(=O)NC4CCCC(C)C4C)ccc3c2=O)c(OC)c1 (stereo not given)	inactive: 0.239%
